Laboratory results published in the supplement of paper PMC4466236.
The full ranking holds about 33,000 sequences; the median of “E-score (dimensionless, -0.5 to 0.5)” is about -0.058, and the highest 2% start at about 0.35. This is one part of the list.

The sequences below were run on MvaT (assay: PBM 8-mer E-score (mean of HK and ME arrays) (E-score (dimensionless, -0.5 to 0.5)); higher = stronger relative binding preference; most listed sequences are background and not binding sites).
In short: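 Reported values are rank-based E-scores, taken as the mean of two universal arrays and parsed with a custom script. Each 8-mer score falls between -0.5 and 0.5. The arrays, ME and HK, were double-stranded 60-mers with a constant 25-mer primer region and a variable 35-mer region covering all 8-mers. They were probed, by an earlier protocol, with full-length P. aeruginosa MvaT carrying an N-terminal glutathione S-transferase fusion.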

Row | Sequence | PBM 8-mer E-score
1 | GGTGGGCA | -0.0266
2 | AAACGTCA | 0.0875
3 | ACGGACGC | -0.252
4 | ACCGCGCA | -0.202
5 | GTTGGCCA | -0.0756
6 | GAACGAGA | -0.0492
7 | CAACGCGA | -0.169
8 | AGTATCAA | 0.141
9 | CCGCTTCG | -0.265
10 | CGGTTGGA | -0.0551
11 | AACAAGCA | 0.0201
12 | CCGGCGCG | -0.265
13 | TATGTAAA | 0.294
14 | ATCATCAG | -0.0879
15 | TTTACAAA | 0.264
16 | ATTGAAAT | 0.27
17 | AGATGGTG | -0.0311
18 | ATTGCAGG | -0.129
19 | GGAGAATA | 0.086
20 | ACCTCATG | -0.241
21 | GCCGCAGC | -0.272
22 | GTGTCCAA | -0.104
23 | GTAATTAC | 0.393
24 | ACCGTAGC | -0.238
25 | CAGAAGCG | -0.247

Row | Sequence | PBM 8-mer E-score
26 | CGTGCGGC | -0.234
27 | GTTTTAAA | 0.282
28 | GCGGGTGA | -0.266
29 | GATATTTA | 0.326
30 | CGTCAACC | -0.119
31 | TAGTTGCA | 0.24
32 | ACGCTGGA | -0.245
33 | CTGTTATC | 0.0487
34 | CAGGGAGG | -0.344
35 | CCACGACA | 0.011
36 | CTGTGCTC | -0.127
37 | GAACTCAA | -0.0711
38 | GCACTAAC | -0.0964
39 | GAAAGGGA | -0.197
40 | AGCGGCTG | -0.179
41 | CACAGTCC | -0.0765
42 | AATTTTGT | 0.234
43 | AGCACGAC | -0.255
44 | AATTCAGC | 0.134
45 | ATCCTGGC | -0.173
46 | TAAATACA | 0.35
47 | TCGTGAAA | 0.0158
48 | GGACCCGA | -0.186
49 | GTGACAAA | 0.0215
50 | AACCTTAG | -0.0485

Row | Sequence | PBM 8-mer E-score
51 | AACTCTCG | 0.00532
52 | TGTGCTAA | 0.0541
53 | GGACTTTA | -0.06
54 | AACGTGCT | -0.0388
55 | AAATAATA | 0.428
56 | GCACCCGA | -0.27
57 | AGACTTAT | 0.182
58 | CCCCGCCA | -0.258
59 | AGTATGCG | 0.127
60 | CAGTTATG | 0.189
61 | AGGCGTCG | -0.268
62 | AGCAGGGG | -0.215
63 | ATGGTGCC | -0.273
64 | ACCAACGG | -0.174
65 | AGCGGTTG | -0.102
66 | CGGCAGAC | -0.106
67 | GCCCTACC | -0.183
68 | CCGCCGTC | -0.117
69 | ATGGAGCA | -0.104
70 | GTTCAAGA | -0.0406
71 | GCCTACCC | -0.193
72 | ATCGGAAA | 0.128
73 | GCGGCATA | 0.0392
74 | AACTCCTC | -0.0536
75 | CAGGCGAG | -0.141

Row | Sequence | PBM 8-mer E-score
76 | AGGACATC | -0.259
77 | TACTTACA | 0.308
78 | TAATGAAA | 0.258
79 | ATGGTGGG | -0.21
80 | CGCGCAGA | -0.141
81 | ACTGAGCG | -0.119
82 | GGCGTGAA | -0.0221
83 | CAGCGGCA | -0.321
84 | GCGTATCA | -0.013
85 | AAGTCCAC | -0.128
86 | AATCGGAC | -0.186
87 | CCACTGTA | 0.0305
88 | GAATTGAA | 0.137
89 | CTAGCCTC | -0.265
90 | ACCAGTGA | -0.108
91 | CGACTTGA | -0.119
92 | GGCTACAA | 0.0664
93 | ACGAATGA | 0.127
94 | TGACAGCA | -0.0447
95 | ACGACGTG | -0.128
96 | CACACTAG | 0.199
97 | CACACCCC | -0.367
98 | ACATACGT | 0.0286
99 | CTATTTCC | 0.135
100 | CAGACTGA | -0.0264

Row | Sequence | PBM 8-mer E-score
101 | CGCCTGAA | -0.22
102 | GAATTTAC | 0.204
103 | ACAATGAC | -0.0272
104 | ATAGGTCA | -0.0355
105 | AGGGGGTG | -0.316
106 | ACGGGAAA | 0.102
107 | GACAAGGC | -0.243
108 | ACAGGCTG | -0.178
109 | GCTCGAGC | -0.0527
110 | AATAACTG | 0.318
111 | CCATATCC | -0.0153
112 | AGGGCGAT | -0.151
113 | CGTGCGAA | -0.0494
114 | GCCTTCGC | -0.258
115 | ACCCAAAA | 0.0589
116 | CAAGGCAA | -0.0335
117 | GGTACGTA | -0.12
118 | AGCAGACT | -0.0901
119 | TATATACA | 0.456
120 | ACCCGGCG | -0.211
121 | GGACTAGA | 0.0132
122 | ACGCGAAT | 0.146
123 | TAAACGAA | 0.225
124 | ACATGTAT | 0.304
125 | CGCCCTCA | -0.108

Row | Sequence | PBM 8-mer E-score
126 | CGCAAGCA | -0.124
127 | AGATGACC | -0.208
128 | ATGAAGGC | -0.0572
129 | CTTAACCA | 0.0313
130 | ACCGCAGG | -0.197
131 | CATGTGAC | -0.0453
132 | AACATAGA | 0.166
133 | AACTTCTT | 0.315
134 | TGACATAA | 0.195
135 | AAGGTAAA | 0.0963
136 | CGCGTCGC | -0.114
137 | ACCATTAT | 0.332
138 | AACAATCT | 0.0729
139 | AGAAGTGG | -0.0269
140 | TATTAACA | 0.437
141 | CACGATGG | -0.0807
142 | AATGCGAG | -0.0343
143 | GCACCTAA | 0.00676
144 | AGTCGGTG | -0.0106
145 | CGTGGTTA | -0.0533
146 | CCGCCTTA | -0.107
147 | CAGGTTGG | -0.107
148 | ACAATGCA | 0.131
149 | CCGCACGG | -0.212
150 | CGAAAGCC | -0.21

Row | Sequence | PBM 8-mer E-score
151 | ATGTTCAA | 0.155
152 | AGATTCCA | -0.159
153 | AAGTTCCT | 0.134
154 | AGTACTAA | 0.258
155 | AAGACACG | -0.0397
156 | AGTCCGTC | -0.103
157 | ACTGTTGA | -0.0844
158 | AGTATCTG | 0.119
159 | ACGATGCA | 0.0104
160 | ATAGTAGA | 0.249
161 | GAGGTATA | 0.121
162 | TATATGAA | 0.382
163 | CCCCTGAA | -0.297
164 | ATGTATGG | 0.0711
165 | AGACCCCC | -0.401
166 | ATCTATTA | 0.301
167 | AGCGCGGA | -0.105
168 | CTTTGCCC | -0.0596
169 | ACGCACTA | 0.12
170 | GCTAGTTA | 0.186
171 | CCTTCAAG | -0.246
172 | AGCACGAT | -0.173
